The other results are listed elsewhere or left out. Sequences were assembled here from the parent chain. Inactive controls read about 0.05.
B1: TEV protease; numbered along this chain (parent)
chain: MGESLFKGPRDYNPISSSICHLTNESDGHTTSLYGIGFGPFIITNKHLFRRNNGTLVVQSLHGVFKVKDTTTLQQHLVDGRDMIIIRMPKDFPPFPQKLKFREPQREERICLVTTNFQTKSMSSMVSDTSCTFPSGDGIFWKHWIQTKDGQCGSPLVSTRDGFIVGIHSASNFTNTNNYFTSVPKNFMELLTNQEAQQWVSGWRLNADSVLWGGHKVFMVKPEEPFQPVKEATQL

Variants of: B1
Assay: raw area under fraction-flipped curve 0-4 h after induction (AUC4h, not background-subtracted), DNA-recorder readout of cleavage of the substrate (dimensionless); higher = more cleavage of the substrate by the protease variant
Conditions: temperature: 34 °C; time window: 0-4 h after rhamnose induction
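Note: Bxb1 expression induced with 0.2% (w/v) L-rhamnose at OD600 near 0.5, cultures sampled hourly, flipped fraction per protease–substrate barcode pair counted by paired-end Illumina sequencing.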

Variant | area with substrate ENCYFQS | area with substrate ENDYFQS | area with substrate ENEYFQS | area with substrate ENFYFQS | area with substrate ENGYFQS | area with substrate ENIYFQS | area with substrate ENKYFQS | area with substrate ENPYFQS | area with substrate ENQYFQS | area with substrate ENTYFQS | area with substrate ENVYFQS | area with substrate ENWYFQS | area with substrate ENHYFQS | area with substrate ENMYFQS | area with substrate ENNYFQS | area with substrate ENSYFQS | area with substrate ENRYFQS | area with substrate ENYYFQS
MGESLFKGPRDYNPISSSICKLTNESDGHTTSLYGIGFGPFIITNKHLFRRNNGTLVVQSLHGVFKVKDTTTLQQHLVDGRDMIIIRMPKDFPPFPQKLKFREPQREERICLVTTNFQTKSMSSMVSDTSCTFPSGDGIFWKHWIQTKDGQCGSPLVSTRDGFIVGIHSASNFTNTNNYFTSVPKNFMELLTNQEAQQWVSGWRLNADSVLWGGHKVFMVKPEEPFQPVKEATQL [H21K] | 0.0653 | 0.0668 | 0.0632 | 0.0562 | 0.0606 | 0.0778 | 0.0554 | 0.0554 | 0.0602 | 0.0666 | 0.069 | 0.0493 |  |  |  |  |  | 
MGESLFKGPRDYNPISSSICHLQNESDGHTTSLYGIGFGPFIITNKHLFRRNNGTLVVQSLHGVFKVKDTTTLQQHLVDGRDMIIIRMPKDFPPFPQKLKFREPQREERICLVTTNFQTKSMSSMVSDTSCTFPSGDGIFWKHWIQTKDGQCGSPLVSTRDGFIVGIHSASNFTNTNNYFTSVPKNFMELLTNQEAQQWVSGWRLNADSVLWGGHKVFMVKPEEPFQPVKEATQL [T23Q] | 0.0632 | 0.0653 | 0.0635 | 0.0703 | 0.0531 | 0.0795 | 0.0589 | 0.066 | 0.0639 | 0.0595 | 0.0405 | 0.0373 | 0.0687 | 0.0885 | 0.0478 | 0.0698 |  | 
MGESLFKGPRDYNPISSSICHLTNASDGHTTSLYGIGFGPFIITNKHLFRRNNGTLVVQSLHGVFKVKDTTTLQQHLVDGRDMIIIRMPKDFPPFPQKLKFREPQREERICLVTTNFQTKSMSSMVSDTSCTFPSGDGIFWKHWIQTKDGQCGSPLVSTRDGFIVGIHSASNFTNTNNYFTSVPKNFMELLTNQEAQQWVSGWRLNADSVLWGGHKVFMVKPEEPFQPVKEATQL [E25A] | 0.0766 | 0.0654 | 0.0571 | 0.0374 |  | 0.0866 | 0.0576 |  | 0.0588 | 0.0537 | 0.077 |  | 0.0318 | 0.0961 | 0.0653 | 0.0578 | 0.043 | 0.0735
MGESLFKGPRDYNPISSSICHLTNESDGQTTSLYGIGFGPFIITNKHLFRRNNGTLVVQSLHGVFKVKDTTTLQQHLVDGRDMIIIRMPKDFPPFPQKLKFREPQREERICLVTTNFQTKSMSSMVSDTSCTFPSGDGIFWKHWIQTKDGQCGSPLVSTRDGFIVGIHSASNFTNTNNYFTSVPKNFMELLTNQEAQQWVSGWRLNADSVLWGGHKVFMVKPEEPFQPVKEATQL [H29Q] | 0.0856 | 0.0674 | 0.0503 |  | 0.0541 |  |  | 0.0508 | 0.0571 |  |  |  | 0.0637 |  |  | 0.0578 | 0.0742 | 0.0574
MGESLFKGPRDYNPISSSICHLTNESDGWTTSLYGIGFGPFIITNKHLFRRNNGTLVVQSLHGVFKVKDTTTLQQHLVDGRDMIIIRMPKDFPPFPQKLKFREPQREERICLVTTNFQTKSMSSMVSDTSCTFPSGDGIFWKHWIQTKDGQCGSPLVSTRDGFIVGIHSASNFTNTNNYFTSVPKNFMELLTNQEAQQWVSGWRLNADSVLWGGHKVFMVKPEEPFQPVKEATQL [H29W] | 0.0752 | 0.0602 | 0.0646 |  | 0.062 |  | 0.0649 |  | 0.0646 | 0.0834 | 0.0891 | 0.0593 | 0.0666 | 0.0848 | 0.0529 | 0.0656 | 0.0468 | 
MGESLFKGPRDYNPISSSICHLTNESDGHTTSLYLIGFGPFIITNKHLFRRNNGTLVVQSLHGVFKVKDTTTLQQHLVDGRDMIIIRMPKDFPPFPQKLKFREPQREERICLVTTNFQTKSMSSMVSDTSCTFPSGDGIFWKHWIQTKDGQCGSPLVSTRDGFIVGIHSASNFTNTNNYFTSVPKNFMELLTNQEAQQWVSGWRLNADSVLWGGHKVFMVKPEEPFQPVKEATQL [G35L] | 0.0489 | 0.0285 |  |  | 0.0802 | 0.0505 |  |  |  |  |  |  |  | 0.0347 |  |  | 0.038 | 
MGESLFKGPRDYNPISSSICHLTNESDGHTTSLYMIGFGPFIITNKHLFRRNNGTLVVQSLHGVFKVKDTTTLQQHLVDGRDMIIIRMPKDFPPFPQKLKFREPQREERICLVTTNFQTKSMSSMVSDTSCTFPSGDGIFWKHWIQTKDGQCGSPLVSTRDGFIVGIHSASNFTNTNNYFTSVPKNFMELLTNQEAQQWVSGWRLNADSVLWGGHKVFMVKPEEPFQPVKEATQL [G35M] | 0.0515 |  |  |  | 0.0668 | 0.0591 |  |  |  |  |  |  | 0.0381 |  |  | 0.0614 |  | 
MGESLFKGPRDYNPISSSICHLTNESDGHTTSLYGIGFGPFIIQNKHLFRRNNGTLVVQSLHGVFKVKDTTTLQQHLVDGRDMIIIRMPKDFPPFPQKLKFREPQREERICLVTTNFQTKSMSSMVSDTSCTFPSGDGIFWKHWIQTKDGQCGSPLVSTRDGFIVGIHSASNFTNTNNYFTSVPKNFMELLTNQEAQQWVSGWRLNADSVLWGGHKVFMVKPEEPFQPVKEATQL [T44Q] | 0.0424 | 0.0459 | 0.0466 |  | 0.0431 |  | 0.0521 |  | 0.0468 | 0.0358 |  |  | 0.0376 | 0.032 | 0.049 |  |  | 0.038
MGESLFKGPRDYNPISSSICHLTNESDGHTTSLYGIGFGPFIITDKHLFRRNNGTLVVQSLHGVFKVKDTTTLQQHLVDGRDMIIIRMPKDFPPFPQKLKFREPQREERICLVTTNFQTKSMSSMVSDTSCTFPSGDGIFWKHWIQTKDGQCGSPLVSTRDGFIVGIHSASNFTNTNNYFTSVPKNFMELLTNQEAQQWVSGWRLNADSVLWGGHKVFMVKPEEPFQPVKEATQL [N45D] | 0.0655 | 0.0597 | 0.0613 | 0.0638 | 0.0538 |  | 0.0564 | 0.0591 | 0.0596 | 0.0512 | 0.059 | 0.0129 | 0.0564 | 0.0578 | 0.0506 | 0.0681 | 0.0532 | 0.0581
